Source: PubChem BioAssay AID360 (National Center for Advancing Translational Sciences (NCATS), 2006)
Out of some 48,000 compounds screened, about 550 (1.1%) were called active. Another 4% or so got no clear call; they are omitted. Cut-off read from the data, not from the text of the source: active = potency below about 15 µM; inconclusive = mostly about 16 µM to 33 µM; inactive = weaker than that. This is one part of the list.

Target: Lysosomal acid glucosylceramidase (Homo sapiens) (UniProt P04062)
Assay: Glucocerebrosidase;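 note: the screen sought inhibitors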
Settings: purified enzyme, resorufin glucoside fluorescence (screen aimed at inhibitors), 20 min; series mostly up to 77 µM
Procedure, shortened: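 Compounds titrated against 0.2 nM normal enzyme, 30 uM resorufin beta-D-glucopyranoside substrate, citrate/phosphate buffer with taurocholate and tween-20, pH 5.9. Reaction ran 20 min at room temperature; fluorescence (Ex 548/Em 600) gave AC50.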
Potency is the fitted concentration of half-maximal effect.

Sequence of UniProt P04062 (P04062 whole entry, looked up): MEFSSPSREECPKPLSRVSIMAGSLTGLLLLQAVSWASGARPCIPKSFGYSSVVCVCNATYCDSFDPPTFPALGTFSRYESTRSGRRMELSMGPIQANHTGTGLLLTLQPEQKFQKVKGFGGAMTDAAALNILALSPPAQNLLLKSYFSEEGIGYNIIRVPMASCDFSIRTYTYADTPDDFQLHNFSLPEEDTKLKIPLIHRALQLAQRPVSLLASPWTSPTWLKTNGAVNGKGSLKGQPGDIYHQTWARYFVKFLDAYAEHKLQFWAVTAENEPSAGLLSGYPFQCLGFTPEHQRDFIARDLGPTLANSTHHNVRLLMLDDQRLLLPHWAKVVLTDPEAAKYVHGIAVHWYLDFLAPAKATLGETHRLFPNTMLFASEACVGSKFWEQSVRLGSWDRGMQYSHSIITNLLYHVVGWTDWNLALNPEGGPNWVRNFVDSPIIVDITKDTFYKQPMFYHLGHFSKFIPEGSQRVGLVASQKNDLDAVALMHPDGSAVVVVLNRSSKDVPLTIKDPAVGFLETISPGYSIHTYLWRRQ

Potency, inactive:
CCc1ccccc1NC(=O)CSc1nnc([C@@H](N)Cc2ccccc2)o1 > 76.9 µM
CC1CC(C(O)c2ccccn2)C(=O)C(C(O)c2ccccn2)C1 (stereo not given) > 76.9 µM
COC(=O)C1CN(S(=O)(=O)c2ccc(C)cc2)CCN1S(=O)(=O)c1ccc(C)cc1 (stereo not given) > 76.9 µM
CCCN(CCC)CCNC(=O)CS(=O)Cc1nc(-c2ccc(C)cc2)oc1C (stereo not given) > 76.9 µM
COc1cc(C(=O)NCc2cn3ccccc3n2)cc(OC)c1OC > 76.9 µM
COc1ccc(C(=O)CSc2nc3nc(C)cc(C)n3n2)cc1OC > 76.9 µM
Cc1c(C(=O)NCc2ccco2)oc2ccc(S(=O)(=O)N3CCC4(CC3)OCCO4)cc12 > 76.9 µM
Cn1c(CCN2CCCCC2)nc2cc(NS(=O)(=O)c3ccccc3)ccc21 > 76.9 µM
CCOc1ccc(N2CC(C(=O)Nc3ccc(F)cc3F)CC2=O)cc1 (stereo not given) > 76.9 µM
O=C(NCc1ccccc1)NC1(C(=O)N2CCOCC2)CCCCC1 > 76.9 µM
CCC(=O)N(Cc1cc2cc(OC)ccc2[nH]c1=O)c1ccc(C)cc1C > 76.9 µM
COc1ccc(-c2ccc(SCC(=O)N3CCCC3)nn2)cc1OC > 76.9 µM
O=C(Nc1ccc(Cc2ccncc2)cc1)c1ccc(Br)o1 > 76.9 µM
O=c1nccc(NCc2ccco2)[nH]1 > 76.9 µM
CS(=O)(=O)N(CC(=O)N1CCc2ccccc2C1)c1ccc2c(c1)OCO2 > 76.9 µM
C=CCNC1=C(Cl)C(=O)N(c2ccccc2Cl)C1=O > 76.9 µM
Cc1cc(C(=O)COC(=O)CCc2nc3ccccc3s2)c(C)n1C > 76.9 µM
CCn1cc(C(=O)Nc2nncs2)c(=O)c2cc(F)c(N3CCN(C(=O)c4ccco4)CC3)cc21 > 76.9 µM
CCC(=O)Nc1ccc(N2CCN(C(=O)c3ccccc3C)CC2)cc1 > 76.9 µM
CCOC(=O)Cc1csc(NC(=O)c2ccc(S(=O)(=O)N3CCCC3)cc2)n1 > 76.9 µM
Cc1ccc(CCN2CC(C(=O)NC3CCCC3)CC2=O)cc1 (stereo not given) > 76.9 µM
CCOC(=O)N1CCC(NC(=O)CCN2C(=O)C3C4C=CC(C4)C3C2=O)CC1 (stereo not given) > 76.9 µM
COC(=O)CC1C(=O)NCCN1C(=O)Nc1ccccc1 (stereo not given) > 76.9 µM
COC(=O)Cn1cc(C(=O)c2ccco2)c2ccccc21 > 76.9 µM
O=C1COc2ccc(C(=O)c3ccccc3)cc2CN1 > 76.9 µM
c1csc(Cn2c(-c3cccs3)nc3ccccc32)c1 > 76.9 µM
COc1ccc(N2CC(C)Cn3c2nc2c3c(=O)n(CCc3ccccc3)c(=O)n2C)cc1 (stereo not given) > 76.9 µM
O=C(CCn1nc(-c2ccccc2)ccc1=O)N1CCN(c2ccccn2)CC1 > 76.9 µM
O=C(CSc1ccc2nnc(-c3ccccc3)n2n1)NCc1ccco1 > 76.9 µM
Cc1ccc(NC(=O)N(Cc2cc3cc(C)cc(C)c3[nH]c2=O)CC2COCCO2)cc1 (stereo not given) > 76.9 µM
CC(=O)c1c(C)[nH]c(C(=O)NCCC2=CCCCC2)c1C > 76.9 µM
Cc1cc(NC(=O)CCC(=O)N(c2ccccc2)C2(C(=O)NC3CCCCC3)CCCC2)no1 > 76.9 µM
COc1ccccc1C1/C(=C(/O)c2ccccc2)C(=O)C(=O)N1CC(C)C (stereo not given) > 76.9 µM
O=C(NCc1cccs1)c1cccnc1C(=O)O > 76.9 µM
COC(=O)NCc1ccc(S(=O)(=O)N2CCOCC2)cc1 > 76.9 µM
CCO/C=C/C(=O)N(C)CCC#N > 76.9 µM
c1ccc(N=P(N2CCOCC2)(N2CCOCC2)N2CCOCC2)cc1 > 76.9 µM
CN1CCN(CCC(=O)Nc2cccc(F)c2)CC1 > 76.9 µM
O=c1cc(N2CCc3ccccc32)[nH]c(=O)n1-c1ccccc1 > 76.9 µM
Cc1cccc(-n2c(=O)[nH]c3c(C(N)=O)nc(CC(C)C)nc32)c1 > 76.9 µM
COc1ccc(C(CC(=O)O)NS(=O)(=O)c2ccc(C)cc2)cc1OC (stereo not given) > 76.9 µM
Fc1cccc(-c2cc3nc4c(c(N5CCOCC5)n3n2)CCCC4)c1 > 76.9 µM
O=C(O)CSc1nnc(-c2ccc(S(=O)(=O)N3CCCC3)cc2)n1Cc1ccco1 > 76.9 µM
O=C(COC(=O)c1cccc(S(=O)(=O)N2CCOCC2)c1)Nc1ccc2c(c1)OCO2 > 76.9 µM
O=C(Nc1ccc2c(c1)OCO2)C1CCCCN1S(=O)(=O)c1ccc(F)cc1 (stereo not given) > 76.9 µM
Cc1ccccc1Nc1nc(N)nc(CN(C)c2ccccc2)n1 > 76.9 µM
CCOC(=O)N1CCN(C(=O)C2CCN(S(=O)(=O)c3cc(Cl)ccc3Cl)CC2)CC1 > 76.9 µM
CC(CC(=O)O)CC(=O)Nc1ccccc1C(=O)O (stereo not given) > 76.9 µM
COCC(C)n1c(C)cc(C(=O)CN2C(=O)NC3(CCCCC3C)C2=O)c1C (stereo not given) > 76.9 µM
COCCn1c(SCc2ccc(C(=O)OC)o2)nc2ccccc2c1=O > 76.9 µM
O=C(C1CCN(Cc2ccc(F)cc2)CC1)N(CCO)Cc1ccccc1 > 76.9 µM
O=C(c1ccco1)c1cn[nH]c1-c1ccc(Cl)cc1O > 76.9 µM
Cc1ccc(C)c(OCC(O)CN2CCCCC2C)c1 (stereo not given) > 76.9 µM
COc1ccc(C2C(C#N)=C(N)Oc3cc(O)ccc32)cc1OC (stereo not given) > 76.9 µM
CCOP(=O)(c1ccccc1Cl)C1(O)CCCCC1 (stereo not given) > 76.9 µM
CCCOc1nc2c(c(=O)n(C)c(=O)n2C)n1CC > 76.9 µM
Cc1c(CNC(=O)c2cnn3c2NC(c2ccccc2)CC3C(F)(F)F)cnn1C (stereo not given) > 76.9 µM
Cc1ccc(C)c(CN2C(=O)C(C)Oc3ccc(C)cc32)c1 (stereo not given) > 76.9 µM
Cc1nc2oc3c(NCc4ccccc4)ncnc3c2c2c1COC(C)(C)C2 > 76.9 µM
COC(=O)c1ccc(OC)c(CSc2nnc(-c3ccc(C)cc3)o2)c1 > 76.9 µM
CCc1ccc2nc(SCC(=O)N(CC)CC)c(C#N)cc2c1 > 76.9 µM
COc1ccc(OCC(=O)Nc2ccc(C)cc2)cc1 > 76.9 µM
O=c1c2cc(N3CCOCC3)ccc2[nH]c(=S)n1Cc1ccco1 > 76.9 µM
Cc1ccc2c(C(=O)CN3CCSCC3)c(C)[nH]c2c1 > 76.9 µM
O=C(Nc1ccc2nsnc2c1)c1cccs1 > 76.9 µM
CCSc1ncc(Cl)c(C(=O)N(Cc2ccc(N(C)C)cc2)C2CCS(=O)(=O)C2)n1 (stereo not given) > 76.9 µM
O=C(Nc1cc(Cl)ccc1N1CCOCC1)c1cnccn1 > 76.9 µM
CSc1nc2ccccc2n1Cc1cccc(F)c1 > 76.9 µM
COc1ccc(C2/C(=C(\O)c3cc(C)ccc3C)C(=O)C(=O)N2CCN(C)C)cc1OC (stereo not given) > 76.9 µM
CCCOc1ccc(C(=O)N2CCN(c3ccc(NC(=O)CC)cc3Cl)CC2)cc1
O=C1NC(c2ccccc2)(C(F)(F)F)SC2=NCCCN12 (stereo not given) > 76.9 µM
Cc1ccc2c(c1C)NC(=O)C2(O)CC(=O)c1ccc2c(c1)OCO2 (stereo not given) > 76.9 µM
N=c1c(C(=O)NCc2ccc(F)cc2)cc2c(=O)n3ccccc3nc2n1CCCN1CCOCC1 > 76.9 µM
CCOC(=O)c1ccc2c(c1)nc(COc1ccccc1C#N)n2CC > 76.9 µM
OCCCNCc1cccc2ccccc12 > 76.9 µM
CCOc1cc(C(=O)NC(C)c2ccncc2)cc(OCC)c1OCC (stereo not given) > 76.9 µM
CCC(C)n1c(=O)c(C(=O)Nc2ccccc2S(N)(=O)=O)c(O)c2ccccc21 (stereo not given) > 76.9 µM
CCOc1ccc(C(C)=O)cc1N1C(=O)C2C3C=CC(C3)C2C1=O (stereo not given) > 76.9 µM
O=C(COC(=O)c1cccnc1)c1ccc(Cl)cc1 > 76.9 µM
O=C1C2C3C=CC(C3)C2C(=O)N1c1ncn[nH]1 (stereo not given) > 76.9 µM
CCN(CC)c1ccc(NC(=O)Cn2nnc(-c3cccc(OC)c3OC)n2)c(C)c1 > 76.9 µM
COC(=O)Cn1nc(-c2ccccc2)n(-c2ccccc2)c1=S > 76.9 µM
Cc1nc2sccn2c1-c1nc(C2CC2)c(C(=O)c2ccc3c(c2)NC(=O)CO3)s1 > 76.9 µM
COCCn1nnnc1SCC(=O)c1ccc(F)cc1 > 76.9 µM
COC(=O)c1ccccc1NC(=O)CN1CCN(C(=O)c2ccco2)CC1 > 76.9 µM
CCNc1nc(NCC)n2c(SCC(=O)O)nnc2n1 > 76.9 µM
CC(C)CCNC(=O)C1CCCN(S(=O)(=O)c2ccc(F)cc2)C1 (stereo not given) > 76.9 µM
CN1CCN(C(CNS(=O)(=O)c2ccc(Cl)cc2)c2cccnc2)CC1 (stereo not given) > 76.9 µM
Cc1ccc(SCc2cc(=O)[nH]c(N3CCN(Cc4ccc5c(c4)OCO5)CC3)n2)cc1 > 76.9 µM
CCn1c(SCC(=O)N2CCCc3ccccc32)nnc1-c1cccs1 > 76.9 µM
